Assay results from PubChem BioAssay (NCI).
Several values for one entry are separate records, joined by “and”; a condition that tells them apart may be missing. Equal values may be shown once.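 These data come from cells grown in 96-well plates and exposed to compound for 48 hours at five concentrations. The concentration for 50% growth inhibition is given as GI50. The concentration for full growth arrest is given as TGI.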

tested on: NCI-H322M lung; test: growth of human tumour cells (NCI), 48 h

Compared with `O=C(/C(=C(/Br)I)c1ccccc1)c1ccccc1`, `N#Cc1c(NC(=S)NC(=O)c2ccccc2)nc2c(c1-c1ccccc1)CCC2` is higher in TGI: 42 µM for the first, over 100 µM for the second.

`Cc1sc2nc3n(c(=O)c2c1C)N=CN(c1ccccc1)C3` and `O=c1c2c3ccccc3[nH]c2c2cccc3c2n1CCC3` cannot be ordered by TGI: over 100 µM for the first, over 100 µM for the second.

Going from `COC(=O)C1OC(O[C@H]2CCC3(C)C(CCC4(C)C3CC=C3C5CC(C)(C)CCC5(C(=O)O)CC[C@]34C)C2(C)C)C(O)C(OC2OC(CO)C(O)C(O)C2O)C1O` (stereo partly drawn) to `CC(=O)OCC1OC(O[C@@H]2C[C@H]3C(C)(C)[C@H](OC(C)=O)CC[C@]3(C)[C@H]3CCC4=C([C@@H](C)C[C@@H](O)[C@H](O)C(C)(C)O)CC[C@@]4(C)[C@@]32C)C(O)C(O)C1O` (stereo partly drawn), the TGI rises from 15.1 µM to 31.3 µM (2.1-fold).

Going from `CC(=O)c1ccc(Nc2cc(-c3ccccc3)nc3c(O)cccc23)cc1` to `O=C(Cc1nc2ccc(C(=O)c3ccccc3)cc2[nH]c1=O)C(=O)Nc1ccc(Br)cc1`, the TGI rises from 96 µM to over 100 µM.

`O=C1CC(O)c2c1csc2Br` (stereo not drawn) and `CCOP(=O)(OCC)[C@H](O)c1ccsc1` cannot be ordered by TGI: over 100 µM for the first, over 100 µM for the second.

`COc1ccc(/C(=C/n2ccnc2)C(=O)c2ccc(OC)c(OC)c2)cc1` and `COc1cc(-n2cc(-c3ccc(Cl)c(Cl)c3)nc2SCc2ccccc2)cc(OC)c1OC` cannot be ordered by TGI: over 100 µM for the first, over 100 µM for the second.

First: Cc1cccc(N2C(=O)C3ON(C(C(N)=O)c4ccccc4)C(c4c5ccccc5c(Cl)c5ccccc45)C3C2=O)c1C (stereo not drawn)
Second: CC(C)C(Sc1nc(-c2ccccc2)c(-c2ccccc2)[nH]1)C(=O)NNC(=S)Nc1ccccc1 (stereo not drawn)
The TGI of the first is 1.5-fold lower: 35.8 µM for the first, 53.9 µM for the second.

`CSC1=NC=CCN1C` and `OCC1CCCC(n2cnc3c(=S)nc[nH]c32)O1` (stereo not drawn) cannot be ordered by TGI: over 100 µM for the first, over 100 µM for the second.

`O=C1O[C@@H](c2ccccc2)C[C@@H]1CN1CCOCC1` and `Oc1ccccc1C(c1cc2c(cc1O)OCO2)N1CCOCC1` (stereo not drawn) cannot be ordered by TGI: over 100 µM for the first, over 100 µM for the second.

Compared with `CC(C)(C)c1cc(O)c(O)c(C(C)(C)C)c1`, `N/C(CC(=O)Nc1cc(C(F)(F)F)ccc1Cl)=N\O` is higher in TGI: 20.8 µM for the first, over 100 µM for the second.

Compared with `C[C@@H]1CC[C@H]2C(COCC3=C(C(F)(F)F)O[C@@H]4O[C@@]5(C)CC[C@H]6[C@H](C)CC[C@@H]3[C@@]46OO5)=C(C(F)(F)F)O[C@@H]3O[C@@]4(C)CC[C@@H]1[C@]32OO4`, `O=C1CC2(C[C@@H]3CCCCCCCCC[C@@H](C3)C2)N1` (stereo partly drawn) is lower in TGI: over 100 µM for the first, 31.4 µM for the second.

First: Cc1ccc2c(C(C[N+](=O)[O-])c3cccs3)c(-c3ccccc3)[nH]c2c1 (stereo not drawn)
Second: Cc1ccc(-c2c(N)nc(NC#N)nc2CCC(=O)Nc2ccccc2[N+](=O)[O-])cc1
The TGI of the first is lower: 9.19 µM for the first, over 100 µM for the second.

`C[N+](C)(C)CC(=O)N/N=c1\cc(C(=O)Nc2ccc(N=O)cc2C#N)oc2cc(O)ccc12` and `O=C(Nc1cccc(-n2ccc3c(NC(=O)c4ccccc4)nccc32)c1)c1cccc(C(F)(F)F)c1` cannot be ordered by TGI: over 100 µM for the first, over 100 µM for the second.

Compared with `COc1cc2c3c(cccc3c1)C(=O)N(CCN1CCCC1)C2=O`, `Cc1[nH]c(/C=C2\C(=O)Nc3ccc(S(=O)(=O)Cc4c(Cl)cccc4Cl)cc32)c(C)c1C(=O)N1CCC[C@@H]1CN1CCCC1` is 1.6-fold higher in TGI: 7.46 µM for the first, 11.6 µM for the second.

`COc1ncc(C=C(C#N)C#N)c(OC)n1` and `COc1ccc(/C=C/C=C(/C#N)C(N)=S)cc1` cannot be ordered by TGI: over 100 µM for the first, over 100 µM for the second.

`CCOC(=O)C(OCC1CC=CCC1)Sc1ccccc1` (stereo not drawn) and `Nc1nc(Cl)cc(NCC2(CO)CC(CCc3ccccc3)C2)n1` (stereo not drawn) cannot be ordered by TGI: over 100 µM for the first, over 100 µM for the second.

`COC(=O)C1=C(C(=O)OC)C2OC1C1C2C2(C)C(C)=C(C)C1(C)S2=O` (stereo not drawn) and `Cc1c(Cl)cccc1NC(=O)C(=O)C1C(=O)CC(C)(C)CC1=O` cannot be ordered by TGI: over 53.8 µM for the first, over 100 µM for the second.

`O=C(CCN1CCN(c2cnc3ccccc3n2)CC1)c1csc2ccccc12` and `Cc1cc([C@@H](C)Nc2ccccc2C(=O)O)c2nc(N3CCOCC3)cc(=O)n2c1` cannot be ordered by TGI: over 100 µM for the first, over 10 µM for the second.

`Cc1nn(-c2ccc(F)cc2)c2ncnc(Nc3ccc(NC(=O)Nc4ccc(Cl)c(C(F)(F)F)c4)cc3)c12` and `O=C(c1cccs1)c1c(C(F)(F)F)n([O-])c2ccccc2[n+]1=O` are within 1.5-fold of each other in TGI: 13.3 µM for the first, 16.2 µM for the second.

Compared with `CCOC(=O)c1cc(=C2\CCN(CC(C)CC)C2=S)/c(=C(/O)CC)[nH]1` (stereo not drawn), `CC(C)(C)OC(=O)NC(Cc1ccccc1)C(=O)OCN1C(=O)C2C3C=CC(C2C1=O)C1C2C(=O)N(COC(=O)C(Cc4ccccc4)NC(=O)OC(C)(C)C)C(=O)C2C31` (stereo not drawn) is higher in TGI: 61.3 µM for the first, over 100 µM for the second.

Going from `N#Cc1c(-c2cccs2)c2c(=S)[nH]c(=S)[nH]c2[nH]c1=S` to `N#Cc1c(N)[nH]c(=S)c(C#N)c1-c1cccc(Cl)c1`, the TGI rises from 92.9 µM to over 100 µM.

Going from `Clc1cc(N/N=C(/c2ccccc2)c2ncccn2)ncn1` to `c1cc(-c2cnc(-c3ccc4c(c3)CCCO4)o2)ccn1`, the TGI falls from 88.4 µM to 54.1 µM (1.6-fold).

In the case of `CC1(C)CC2(C)CC1CC2O` (stereo not drawn), the TGI is reported as over 100 µM.

First: COC(=O)C1OC(O[C@H]2CCC3(C)C(CCC4(C)C3CC=C3C5CC(C)(C)CCC5(C(=O)O)CC[C@]34C)C2(C)C)C(O)C(OC2OC(CO)C(O)C(O)C2O)C1O (stereo partly drawn)
Second: CC(=O)OCC1OC(O[C@@H]2C[C@H]3C(C)(C)[C@H](OC(C)=O)CC[C@]3(C)[C@H]3CCC4=C([C@@H](C)C[C@@H](O)[C@H](O)C(C)(C)O)CC[C@@]4(C)[C@@]32C)C(O)C(O)C1O (stereo partly drawn)
The GI50 of the first is 2.3-fold lower: 7.57 µM for the first, 17.5 µM for the second.

Compared with `CC(=O)c1ccc(Nc2cc(-c3ccccc3)nc3c(O)cccc23)cc1`, `O=C(Nc1cccc(-n2ccc3c(NC(=O)c4ccccc4)nccc32)c1)c1cccc(C(F)(F)F)c1` is 100-fold lower in GI50: 22.9 µM for the first, 0.222 µM for the second.

First: COc1cc(-n2cc(-c3ccc(Cl)c(Cl)c3)nc2SCc2ccccc2)cc(OC)c1OC
Second: Cc1ccc2c(C(C[N+](=O)[O-])c3cccs3)c(-c3ccccc3)[nH]c2c1 (stereo not drawn)
The GI50 of the first is higher: over 100 µM for the first, 3.63 µM for the second.

`CC(C)(C)c1cc(O)c(O)c(C(C)(C)C)c1` and `O=C(c1cccs1)c1c(C(F)(F)F)n([O-])c2ccccc2[n+]1=O` are within 1.5-fold of each other in GI50: 8.09 µM for the first, 9.06 µM for the second.

Going from `C[C@@H]1CC[C@H]2C(COCC3=C(C(F)(F)F)O[C@@H]4O[C@@]5(C)CC[C@H]6[C@H](C)CC[C@@H]3[C@@]46OO5)=C(C(F)(F)F)O[C@@H]3O[C@@]4(C)CC[C@@H]1[C@]32OO4` to `Cc1[nH]c(/C=C2\C(=O)Nc3ccc(S(=O)(=O)Cc4c(Cl)cccc4Cl)cc32)c(C)c1C(=O)N1CCC[C@@H]1CN1CCCC1`, the GI50 falls from over 100 µM to 5.47 µM.

Compared with `COc1cc2c3c(cccc3c1)C(=O)N(CCN1CCCC1)C2=O`, `Cc1cc([C@@H](C)Nc2ccccc2C(=O)O)c2nc(N3CCOCC3)cc(=O)n2c1` is higher in GI50: 2.68 µM for the first, over 10 µM for the second.

Going from `O=c1cc(-c2cccc(F)c2)[nH]c2cc3c(cc12)OCO3` to `Cc1nn(-c2ccc(F)cc2)c2ncnc(Nc3ccc(NC(=O)Nc4ccc(Cl)c(C(F)(F)F)c4)cc3)c12`, the GI50 rises from 0.608 µM to 2.64 µM (4.3-fold).

Compared with `O=C(CCN1CCN(c2cnc3ccccc3n2)CC1)c1csc2ccccc12`, `N#Cc1c(-c2cccs2)c2c(=S)[nH]c(=S)[nH]c2[nH]c1=S` is lower in GI50: over 100 µM for the first, 25.2 µM for the second.

In the case of `COc1ccc(/C=C/C=C(/C#N)C(N)=S)cc1`, the GI50 is reported as 48.4 µM.

In the case of `O=c1cc(-c2cccc(F)c2)[nH]c2cc3c(cc12)OCO3`, the TGI is reported as 75 µM and > 100 µM.
